Results: PubChem BioAssay AID686971 (National Center for Advancing Translational Sciences (NCATS), 2013)
Screen size: about 360,000 compounds; about 7,500 (2.1%) were called active. Inconclusive means that the source gave no clear call. Such entries were picked first, then a sample of the others. The call rests on the fitted dose curve; in most records, active means well fitted cell-killing curve with a large enough effect; inconclusive means small, poorly fitted or top-dose-only effect, or effect the other way, or another doubt; inactive means no such curve, though single readings can be large or run the other way. Potencies of inconclusive entries are left out as doubtful fits.

Experiment: qHTS for induction of synthetic lethality in tumor cells producing 2HG: qHTS for the HT-1080-IDH1KD cell line;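 on activity, negative = toxicity: 0% = DMSO wells and -100% = cell-free medium wells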
Conditions: HT-1080 IDH1 knockdown viability, ATP luminescence, 48 h; activity, negative = toxicity: at 46.1 µM (top of the series) unless noted
Summary of the method: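 After a 2 h attachment period, IDH1KD HT-1080 cells took pin-transferred compound for 48 h at 37 °C; ATP-based luminescence after 10 min room-temperature reagent incubation reported viability.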
Potency means the concentration at half of the fitted maximal effect; tags describe the fitted curve by direction and shape.

SMILES | Potency | activity, negative = toxicity
CC(=O)OC(C)(C)/C=C/C(=O)C(C)(O)C1[C@H](O)C[C@@]2(C)C3CC=C4C(CC[C@@H](O)C4(C)C)[C@]3(CO)C(=O)C[C@]12C (stereo partly specified) | active: 0.0326 µM | –
O=C1NC(=O)C(Cc2ccccc2)(Cc2ccccc2)C(=O)N1Cc1ccccc1 | inconclusive [cytotoxic, partial curve] | –
COC1CC(C)C(OC)c2cc(O)cc(c2O)NC(=O)C(C)=CC=CC(C)C(OC(N)=O)C(C)=CC(C)C1OC (stereo unspecified) | active: 23.1 µM | –
COc1ccc(CN2Cc3cnnn3-c3ccccc3C2C#N)cc1 (stereo unspecified) | active: 6.51 µM | –
CCN1C[C@]2(CO)CC[C@H](OC)[C@@]34C2[C@H](OC)[C@@](O)(C13)[C@@]1(O)C[C@H](OC)[C@H]2C[C@@H]4[C@@H]1[C@H]2OC | – | inactive: 0%
COP(=O)(NC(=O)C(Cl)(Cl)Cl)OC | – | inactive: 0.3%
Clc1cccc(N2Cc3cc(-c4ccccc4)ccc3-n3nncc3C2)c1 | active: 10.3 µM | –
COC(=O)C1=C(c2cccc(C#N)c2)C[C@@H]2CC[C@H]1N2C(=O)NC1Cc2ccccc2C1 | – | inactive: -2.99%
CCc1ccc(-n2c(O)c(/C=N/NC(=O)c3ccncc3)c(=O)[nH]c2=O)cc1 | – | inconclusive: 30.2%
COC(=O)C1=C(c2cc3ccccc3o2)C[C@@H]2CC[C@H]1N2C(=O)N1CCOCC1 | inconclusive [cytotoxic, single point] | –
Cc1ccc2c(C)c3ccc4ccccc4c3c[n+]2c1 | active: 23.1 µM | –
COCCNCCOc1ccc(C(C)(C)c2ccccc2)cc1 | inconclusive [cytotoxic, partial curve] | –
CO[C@@H]1C=CC23c4cc5c(cc4CO[C@]2(O)CN(C)[C@H]3C1)OCO5 (stereo partly specified) | – | inactive: 3%
COC(=O)C1=C(c2ccc(F)cc2F)C[C@@H]2CC[C@H]1N2C(=O)N1CCOCC1 | – | inactive: 0%
CC12CCC3C(CC=C4CC(O)CCC43C)C1C/C(=C\c1ccccc1F)C2=O (stereo unspecified) | inconclusive [cytotoxic, single point] | –
Cc1ccc2n1Cc1cnnn1-c1ccccc1-2 | – | inactive: 0.892%
COC(=O)c1ccc(N2CCN(C)CC2)c([N+](=O)[O-])c1 | – | inactive: 11.8%
O=C1NC(=O)N(Cc2ccccc2)C(=O)/C1=C\C=C\c1ccco1 | active: 3.66 µM | –
CCOc1c(Cl)cc(CNCCc2c[nH]c3ccccc23)cc1OC | – | inactive: -8.01%
O=C1C2(Cl)C3(Cl)C4(Cl)C(Cl)(Cl)C5(Cl)C3(Cl)C1(Cl)C5(Cl)C24Cl (stereo unspecified) | active: 16.4 µM | –
Clc1ccc(C[n+]2c(-c3ccccc3)cc(-c3ccccc3)cc2-c2ccccc2)cc1 | active: 10.3 µM | –
COc1ccc(-n2nnnc2C(c2cccs2)N2CCC3(CC2)C(=O)NCN3c2ccccc2)cc1 (stereo unspecified) | inconclusive [cytotoxic, single point] | –
CN(C)c1ccc(C(=O)c2ccc(N(C)C)cc2)cc1 | active: 2.51 µM | –
CCOC(=O)[C@]12Cc3cc(C)ccc3[C@H]1N(Cc1ccccc1)C(=O)c1cc(F)c(F)cc12 | inconclusive [cytotoxic, single point] | –

SMILES | Potency | activity, negative = toxicity
COc1ccc2[nH]cc(C(=O)CN(C)C)c2c1 | inconclusive [cytotoxic, single point] | –
Cn1cc(C=C2C(=O)NC(=O)NC2=O)c2ccccc21 | – | inconclusive: -28.4% [cytotoxic]
CCC1(O)C(=O)OCc2c1cc1n(c2=O)Cc2cc3cc(O)ccc3nc2-1 (stereo unspecified) | active: 0.651 µM | –
COCCCn1c(-c2ccc(OC)cc2)cc(C(=O)NC2CCCCCCC2)c1C | inconclusive [cytotoxic, single point] | –
CC/C(=N\NC(=O)Nc1ccccc1)c1c(O)n(Cc2ccccc2)c(=O)[nH]c1=O | inconclusive [rising, partial curve, poor fit] | –
Cc1cccc(-n2c(O)c(/C=N/NC(=O)c3ccncc3)c(=O)[nH]c2=O)c1 | inconclusive [rising, partial curve, poor fit] | –
O=C(CCC(=O)N1C[C@H]2C[C@@H](C1)c1cccc(=O)n1C2)NCc1cccc(C(F)(F)F)c1 | inconclusive [cytotoxic, single point] | –
CCN1C(=O)C(=Cc2ccc(C)s2)C(=O)N(CC)C1=S | inconclusive [cytotoxic, single point] | –
COc1cccc(CNCC(O)(c2ccc(Cl)cc2)c2ccc(Cl)cc2)c1 | inconclusive [cytotoxic, single point] | –
COc1cccc(C(c2nnnn2-c2ccc3c(c2)OCCO3)N2CCC3(CC2)C(=O)NCN3c2ccccc2)c1OC (stereo unspecified) | active: 16.4 µM | –
CC(=O)Nc1ccccc1C(=O)OCc1ccc(C(=O)c2ccccc2)cc1 | inconclusive [cytotoxic, single point] | –
C=CCn1c(O)c(C=NCCCOc2ccc(CC)cc2)c(=O)[nH]c1=S | inconclusive [cytotoxic, single point] | –
O=c1cc(CN2CC=C(c3ccccc3)CC2)c2c(ccc3ccccc32)o1 | – | inconclusive: 28.2%
N#CC(C#N)=NNc1ccc(-n2ccc(C(F)(F)F)n2)cc1 | active: 4.61 µM | –
O=C1NC(=O)N(c2cccc(Cl)c2)C(=O)/C1=C\c1ccc(Sc2nc3ccccc3[nH]2)o1 | – | inactive: 0.259%
O=P(O)(O)CN1CCNCCN(CP(=O)(O)O)CCNCC1 | active: 14.6 µM | –
O=C(NC1(C(F)(F)F)Oc2ccccc2O1)N1CCC2(CC1)OCCO2 | inconclusive [cytotoxic, partial curve] | –
COc1cc(NC(=O)CN2C3CCC2CC(O)(c2cccnc2)C3)cc(OC)c1 (stereo unspecified) | – | inactive: -25.9%
C=CCNC(=O)c1ccccc1NC(=O)c1ccc(Cl)c(S(=O)(=O)Nc2cc(C)ccc2C)c1 | inconclusive [cytotoxic, partial curve] | –
COc1cc(C(c2c(C)[nH]n(-c3ccccc3)c2=O)c2c(C)[nH]n(-c3ccccc3)c2=O)cc(OC)c1OC | inconclusive [cytotoxic, single point] | –
COc1cc(C=C2C(=O)NC(=O)NC2=O)ccc1O | – | inactive: 10.5%
O=C1NC(=O)N(Cc2ccco2)C(=O)/C1=C\c1ccc(-c2ccc(F)cc2)o1 | active: 18.4 µM | –
CN1CCN(c2c(F)cc([N+](=O)[O-])c(N)c2Br)CC1 | – | inactive: -18.8%
CN1CCN(C2=Nc3cc(Cl)ccc3Nc3ccccc32)CC1 | inconclusive [cytotoxic, single point] | –

SMILES | Potency | activity, negative = toxicity
CSC(=Nc1ccccc1)c1c(O)n(C)c(=O)n(C)c1=O | inconclusive [cytotoxic, single point] | –
O=C1NCN(c2ccccc2)C12CCN(C(c1ccccc1OC(F)(F)F)c1nnnn1-c1ccc3c(c1)OCCO3)CC2 (stereo unspecified) | inconclusive [cytotoxic, partial curve] | –
C[C@]12CC[C@@H](O)CC1=CCC1C2CC[C@@]2(C)C1CC[C@@H]2N (stereo partly specified) | – | inactive: 14.3%
COC(=O)C1=C(c2ccc3ccccc3c2)C[C@@H]2CC[C@H]1N2C(=O)NC1Cc2ccccc2C1 | – | inactive: -15.1%
CC12C=CC(=O)C=C1CCC1C2C(=O)CC2(C)C(=O)CCC12 (stereo unspecified) | – | inactive: 10.5%
O=C(O)c1[nH]c(=O)[nH]c(=O)c1F | inconclusive [cytotoxic, full curve, poor fit] | –
O=c1[nH]c(=S)[nH]c(O)c1/C=C1/C=c2ccccc2=N1 | inconclusive [cytotoxic, single point] | –
N#Cc1c(Br)n(C2OC(CO)C(O)C2O)c2ncnc(N)c12 (stereo unspecified) | active: 3.26 µM | –
CC(=O)O[C@H]1CCC2C3CC[C@H]4[C@@H](O)[C@H](O)CC[C@]4(C)C3CC[C@@]21C (stereo partly specified) | inconclusive [cytotoxic, partial curve] | –
CC(C)(C)C(=O)N1Cc2ccccc2-n2nncc2C1 | – | inactive: 8.52%
C[C@@H]1CN(C2CCC(C#N)(c3ccc(F)cc3)CC2)CC[C@]1(C(=O)O)c1ccccc1 (stereo partly specified) | – | inactive: 0.815%
Clc1ccc(COC(Cn2ccnc2)c2ccc(Cl)cc2Cl)c(Cl)c1 (stereo unspecified) | inconclusive [cytotoxic, single point] | –
Cc1ccc(-c2csc3ncnc(OCC(=O)NC(=O)NCc4ccco4)c23)cc1 | inconclusive [cytotoxic, single point] | –
Cc1nn(C)c(C)c1/C=C1/CC2C3CC=C4CC(O)CCC4(C)C3CCC2(C)C1=O (stereo unspecified) | inconclusive [cytotoxic, partial curve, poor fit] | –
CCN(CC)c1ccc(CN2CC=C(c3ccc(F)cc3)CC2)cc1 | inconclusive [cytotoxic, single point] | –
Clc1ccc2c(c1)C(c1ccccc1Cl)=NCc1nnc(N3CCN(CCOc4ccccc4)CC3)n1-2 | inconclusive [cytotoxic, partial curve] | –
Cn1cc(NC(=O)CCl)cn1 | inconclusive [cytotoxic, single point] | –
COC(=O)C1=C(c2cccc(OC)c2OC)C[C@@H]2CC[C@H]1N2C(=O)NCCO | – | inactive: -14%
CCN(CC)CCCOC(=O)C(OC(C)C)(c1ccccc1)c1ccccc1 | inconclusive [cytotoxic, single point] | –
COc1ccc(CN2CC3CC(C2)c2cccc(=O)n2C3)cc1OC (stereo unspecified) | – | inactive: -26.2%
CN1CCc2cccc3c2[C@H]1Cc1ccc(O)c(O)c1-3 | active: 23.1 µM | –
CCOc1ccccc1N1C(=O)NC(=O)C(CCc2ccncc2)(CCc2ccncc2)C1=O | – | inactive: -12.6%
CC(=NCCCn1ccnc1)c1c(O)n(C2CCCCC2)c(=O)[nH]c1=O | – | inactive: -4.76%
